Assay results as given in PubChem BioAssay AID651820 (National Center for Advancing Translational Sciences (NCATS), 2012).
In all, about 340,000 compounds went through this assay and about 12,000 (3.5%) were called active. This list was built around the results that the source calls inconclusive (neither active nor inactive); the mix of calls is not that of the screen. Calls follow the shape of the dose curve; as a rule, active = well fitted inhibition curve with a large enough effect; inconclusive = small, poorly fitted or top-dose-only effect, or another doubt; inactive = no such curve, though single readings can be large or run the other way. Potencies of inconclusive entries are left out as doubtful fits.

experiment: qHTS Assay for Inhibitors of Hepatitis C Virus (HCV); details: Huh7.5.1 HCVcc-Cre (HCVcc is cell-culture hepatitis C virus) infection, luciferase reporter, 44 h; activity change, negative = inhibition: at 41.8 µM (top of the series) unless noted
How it was run: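 A cell-based infection assay in which seeded cells (1,000 per well) receive test compound after 4 h, are inoculated with HCVcc-Cre at approximately 0.5 moi, and are incubated 44 h before luminescence detection.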
% is scaled to controls: 0 for no effect and ±100 for the full control effect; potency is read from the fitted curve at half-maximal effect; tags tell the direction and shape of the fitted curve.

| SMILES | Potency | activity change, negative = inhibition |
| --- | --- | --- |
| COc1ccc(-c2cc(=Nc3c(C)n(C)n(-c4ccccc4)c3=O)c3ccccc3o2)cc1 | inconclusive [inhibitor, partial curve] |  |
| CC(C)[C@H](NC(=O)c1ccc(Cl)c([N+](=O)[O-])c1)C(=O)NCc1ccc(F)cc1 | inconclusive [inhibitor, single point] |  |
| CC1=C(C(=O)OCc2ccccc2)C(c2ccccc2OS(=O)(=O)c2ccc([N+](=O)[O-])cc2)NC(=O)N1CCCC(=O)O (configuration not stated) | inactive |  |
| CCOC(=O)C1CCN(S(=O)(=O)c2cccc(-c3cn4cc(C)ccc4n3)c2)CC1 | inconclusive [inhibitor, single point] |  |
| CCOC(=O)C1=C(C)Nc2nc(SCC)[nH]c(=O)c2C1c1ccncc1 (configuration not stated) | inconclusive [inhibitor, single point] |  |
| COCCCNCCC(CCC(C)C)c1ccc2c(c1)OCO2 (configuration not stated) | active: 14.1 µM |  |
| Cc1cccc(C)c1NC(=S)N/N=C/c1ccc(OCCC(C)C)cc1 | inconclusive [inhibitor, partial curve, poor fit] |  |
| O=C(Nc1ccc(Cl)cc1)N1CCN(c2ccccc2)CC1 | inconclusive [inhibitor, partial curve] |  |
| CNC(=O)Oc1ccc(-c2cn3cc(C)ccc3n2)cc1 | inconclusive [inhibitor, single point] |  |
| CC(c1ccccc1)n1cc(C(=O)NCC2COc3ccccc3O2)nn1 (configuration not stated) | inconclusive [inhibitor, full curve, poor fit] |  |
| Fc1cccc(CCN2CCNC[C@@H]2c2ccccc2)c1 | inconclusive [inhibitor, single point] |  |
| CNC[C@H]1Oc2c(NS(=O)(=O)c3cccs3)cccc2C(=O)N([C@H](C)CO)C[C@@H]1C | inactive |  |
| COCCNC(=O)C1CCC(Cn2c(=S)[nH]c3ccccc3c2=O)CC1 (configuration not stated) | inactive |  |
| O=C(NCCN1CCCC1)c1ccc2c(c1)N(Cc1ccc(F)cc1)C(=O)c1ccccc1S2=O (configuration not stated) | inactive |  |
| O=C(Nc1cccnc1)c1sc(Nc2ccccc2)nc1-c1ccccc1 | inconclusive [inhibitor, partial curve, poor fit] |  |
| Nc1c(C(=O)NCc2ccco2)c2nc3ccccc3nc2n1Cc1ccc(F)cc1 | inconclusive [inhibitor, partial curve] |  |
| Cc1ccc(C(=O)/C=C/c2cn(CN3CCN(C)CC3)c3ccccc23)cc1 | inconclusive [inhibitor, partial curve] |  |
| Cn1nc(C(F)(F)F)c(-c2ccc(Br)cc2)c1NC(=O)Nc1ccc(F)cc1F |  | inconclusive: -74.4% [inhibitor] |
| CCCN(CC(=O)Nc1cc(C)on1)CC(=O)Nc1ccc(F)c(F)c1F | inconclusive [inhibitor, partial curve] |  |
| Cc1ccc(S(=O)(=O)CCN2C=CC(C(F)(F)F)=NCC2)cc1 | inactive |  |
| COc1ccc(-c2csc(NC(=O)COc3ccc(N(C)S(=O)(=O)c4ccc(C)cc4)cc3)n2)cc1 | inconclusive [inhibitor, partial curve] |  |

| SMILES | Potency | activity change, negative = inhibition |
| --- | --- | --- |
| CN(Cc1cccc(F)c1)C(=O)Cc1ccc(S(=O)(=O)N2CCOCC2)s1 | inactive |  |
| COc1ccc(N2CCN(CCCNC(=O)C(=O)c3c(C)[nH]c4ccccc34)CC2)cc1 | inconclusive [inhibitor, single point] |  |
| CCC(c1nnnn1Cc1ccco1)N(CCc1ccccc1)Cc1cc2cc(C)ccc2[nH]c1=O (configuration not stated) | inconclusive [inhibitor, single point] |  |
| CSc1ccc(CN(C)CC(=O)Nc2c(F)cccc2F)cc1 | inconclusive [inhibitor, single point] |  |
| O=C(Nc1ccc(Cl)cn1)C1CCCN(c2ncnc3c2nc2n3CCCCC2)C1 (configuration not stated) | inconclusive [inhibitor, single point] |  |
| CCC1Sc2ccc(S(=O)(=O)CCC(=O)Nc3c(Cl)cc(OC)cc3OC)cc2NC1=O (configuration not stated) | inconclusive [inhibitor, single point] |  |
| O=C(Nc1ccn(-c2ccccc2)n1)c1ccc(Cl)cc1 | active: 7.08 µM |  |
| O[C@@H]1CN(C2CCN(Cc3ccccc3)CC2)CC[C@H]1N1CCCCCC1 | inconclusive [inhibitor, single point] |  |
| COc1ccc(S(=O)(=O)NCCc2c(C)nn(C)c2Oc2ccccc2)cc1 | inconclusive [inhibitor, single point] |  |
| CC(=O)NCc1nc2ccccc2n1Cc1ccccc1F | inactive |  |
| CCCOC(=O)c1ccc(Oc2cn[nH]c2-c2ccc(OCC)cc2O)cc1 | inconclusive [inhibitor, partial curve, poor fit] |  |
| Fc1ccc(NC(=S)Nc2ccccc2N2CCOCC2)cc1Cl | inactive |  |
| CN1CCN(C(=O)C2CCCN(S(=O)(=O)c3ccc(Br)cc3)C2)CC1 (configuration not stated) | inconclusive [inhibitor, single point] |  |
| Clc1ccc(C2[C@H]3CN(Cc4cccnc4)[C@H](c4ccccc4)C34CC2(c2cccnc2)C4)cn1 (some centres not stated) | inactive |  |
| CCn1c(/C=C/Nc2ccccc2)[n+](CC)c2ccc(C(=O)OCC(F)(F)F)cc21 | inconclusive [inhibitor, single point] |  |
| COCCN(C(=S)Nc1ccc(C)cc1C)C(C)c1ccco1 (configuration not stated) | inconclusive [inhibitor, single point] |  |
| CCOc1ccc(NC(=O)CSc2nc(NS(=O)(=O)c3ccc(C)cc3)cc(=O)[nH]2)cc1 | inactive |  |
| COc1ccc(-c2nn(C)c(=O)c3ccccc23)cc1CNS(C)(=O)=O | inconclusive [inhibitor, partial curve] |  |
| CCN(CCCNS(=O)(=O)c1ccc2c(c1)CCN2C(C)=O)c1cccc(C)c1 | inconclusive [inhibitor, single point] |  |
| Brc1ccc(/C=N/Nc2ccc3ccccc3n2)cc1 | inactive |  |
| O=C(CSc1ccccc1)Nc1ccc(-c2nc3ccccc3[nH]2)cc1 | inconclusive [inhibitor, partial curve, poor fit] |  |
